# From publication PMC4336329 (PLoS ONE, 2015)
# Hit rate of the full screen: of about 310,000 compounds, about 14,000 (4.5%) showed an effect of 50% or more. The effect is printed as a negative number. Some of the results follow.
# Target: human ether-à-go-go-related gene (hERG) potassium channel (human, UniProt Q12809)
# Experiment: primary screen, population patch clamp on CHO cells stably expressing hERG
# 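Further: peak tail current of the secondary pulse compared with the same well before compound.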
# human ether-à-go-go-related gene (hERG) potassium channel, sequence (Q12809 whole entry, looked up): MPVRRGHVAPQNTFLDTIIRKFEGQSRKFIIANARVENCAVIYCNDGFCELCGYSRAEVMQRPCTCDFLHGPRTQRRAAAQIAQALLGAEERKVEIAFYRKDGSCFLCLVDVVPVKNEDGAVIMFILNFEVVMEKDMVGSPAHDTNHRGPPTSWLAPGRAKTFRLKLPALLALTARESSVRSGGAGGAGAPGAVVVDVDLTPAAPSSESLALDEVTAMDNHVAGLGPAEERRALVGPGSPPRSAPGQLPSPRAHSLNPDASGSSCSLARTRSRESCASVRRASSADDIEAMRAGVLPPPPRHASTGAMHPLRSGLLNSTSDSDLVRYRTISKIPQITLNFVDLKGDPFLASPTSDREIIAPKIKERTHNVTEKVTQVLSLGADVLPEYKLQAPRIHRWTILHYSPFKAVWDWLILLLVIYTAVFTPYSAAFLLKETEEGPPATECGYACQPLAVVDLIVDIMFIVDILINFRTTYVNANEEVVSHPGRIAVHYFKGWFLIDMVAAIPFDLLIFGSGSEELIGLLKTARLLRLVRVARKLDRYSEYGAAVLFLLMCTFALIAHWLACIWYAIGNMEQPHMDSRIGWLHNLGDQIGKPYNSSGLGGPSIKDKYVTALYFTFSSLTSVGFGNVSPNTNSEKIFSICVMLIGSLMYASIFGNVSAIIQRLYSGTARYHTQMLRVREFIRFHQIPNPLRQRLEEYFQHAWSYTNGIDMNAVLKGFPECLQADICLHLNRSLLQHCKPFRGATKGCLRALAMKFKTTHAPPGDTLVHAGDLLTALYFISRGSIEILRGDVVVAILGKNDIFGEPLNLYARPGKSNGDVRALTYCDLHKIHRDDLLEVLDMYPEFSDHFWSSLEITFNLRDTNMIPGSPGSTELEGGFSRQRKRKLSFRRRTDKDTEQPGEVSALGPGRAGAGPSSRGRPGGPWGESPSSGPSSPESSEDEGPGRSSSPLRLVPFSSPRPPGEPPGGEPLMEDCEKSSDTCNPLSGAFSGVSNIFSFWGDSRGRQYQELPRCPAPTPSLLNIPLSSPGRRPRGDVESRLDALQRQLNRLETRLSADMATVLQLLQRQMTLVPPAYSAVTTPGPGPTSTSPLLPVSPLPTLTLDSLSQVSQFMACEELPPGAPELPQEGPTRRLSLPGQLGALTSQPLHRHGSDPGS
row,Compound,"hERG current change (%, negative = inhibition) at 10uM"
1,C(=C\c1ccccc1)/CNCC1CCCO1.Cl (stereo not shown),7.95%
2,Cc1ccc(NC(=O)c2sc(Cl)nc2-c2ccccc2)cc1,18.2%
3,O=C(N/N=C/c1cc([N+](=O)[O-])c(N2CCOCC2)cc1N1CCOCC1)c1cccnc1,-22.4%
4,COc1ccc([N+](=O)[O-])cc1N(CC(O)Cn1nnc2ccccc21)S(=O)(=O)c1ccc(C)cc1 (stereo not shown),-29.4%
5,COc1ccc(CC(NC(C)=O)C(=O)NC2CCN(c3ncccc3[N+](=O)[O-])CC2)cc1 (stereo not shown),4.65%
6,O=c1oc2c(CN3CCOCC3)c(O)ccc2c2c1CCCC2,-4.32%
7,S=C(NCC1CC1)N/N=C/c1ccccc1Cl,11.5%
8,CCOc1ccc2nc(NC(=O)Cn3[nH]c(=O)c4ccccc4c3=O)sc2c1,-5.33%
9,CCC(C)NC(=O)Cn1nc([N+](=O)[O-])c(Cl)c1C (stereo not shown),-2.4%
10,O=C(CNC(=O)c1ccco1)NCC(=O)OCc1cccc(C(=O)Oc2ccccc2)c1,-3.88%
11,Cc1ccc(/C=C2\SC(=S)N(CCC(=O)N3CCOCC3)C2=O)cc1,12.1%
12,CC(=O)N1N=C(c2cccc([N+](=O)[O-])c2)OC1c1ccccc1Cl (stereo not shown),-25.8%
13,COc1ccc(Cl)cc1NC(=S)NCc1cccs1,3.26%
14,COc1ccc(C(=O)Nc2ccncc2)cc1OC,-6.96%
15,COCCC(=O)NC12CC3CC(CC(C3)C1)C2,5.74%
16,O=C(NCC(c1ccco1)N1CCCCC1)c1ccc(S(=O)(=O)Nc2ccccc2)cc1 (stereo not shown),-2.49%
17,COc1ccc(-c2csc(NC(=O)C3CC(=O)N(c4ccc5c(c4)OCCO5)C3)n2)cc1 (stereo not shown),4.17%
18,CCCc1nc2ccccc2c(NC(=O)CN(CC)CC)c1CC.O=C(O)C(=O)O,3.18%
19,Cc1cc(O)c(/C=N/c2ccccn2)c(=O)o1,9.41%
20,CCOC(=O)Cn1c(=O)cc(C)c2cccc(C)c21,7.27%
21,Cn1c(SCC2CCCO2)nnc1-c1ccncc1 (stereo not shown),12.3%
22,Cc1cc(Br)ccc1OCCOCCN1CCCC1.O=C(O)C(=O)O,-60.7%
23,CCOc1cc(N2CCOCC2)c(OCC)cc1NC(=O)C1=COCCO1,-36.1%
24,Cc1ccc(OCCn2cc(/C=C(\C#N)C(=O)NCC3CCCO3)c3ccccc32)cc1C (stereo not shown),9.61%
25,O=C(CNc1ccccc1F)Nc1cccc2ccccc12,3.43%
